# Laboratory results reported in the supplement of paper PMC4604168 (melanoma cell lines).
# The other results are listed elsewhere or left out. Many values rest on one well or one pass, so single values are uncertain.
# System: UACC257
# Assay: cell count relative to DMSO control; melanoma cells; higher = more viable cells
# Conditions: library dose: low library concentration; 72 h
# 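Further: cell number obtained by counting DAPI-stained nuclei in high-throughput microscope images with image analysis software, screen run in 1,536-well plates.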
row,SMILES,cell count
1,"COc1cc([C@@H]2c3cc4c(cc3[C@@H](O[C@@H]3O[C@@H]5CO[C@@H](C)O[C@H]5[C@H](O)[C@H]3O)[C@H]3COC(=O)[C@H]23)OCO4)cc(OC)c1O [etoposide] + CN(NC(=O)CC(=O)NN(C)C(=S)c1ccccc1)C(=S)c1ccccc1 [STA4783] (first compound 0.02 µM, partner dose 0.006 µM)",72.6%
2,"C[C@]1(O)C[C@@H](c2nc(-c3ccc4ccc(-c5ccccc5)nc4c3)c3c(N)nccn32)C1 + Cc1cc([N+](=O)[O-])ccc1NS(=O)(=O)c1cc(Cl)ccc1Cl [FH535] (first compound 0.4 µM, partner dose 1 µM)",77.6%
3,"CCN(CC)CCNC(=O)c1c(C)[nH]c(/C=C2\C(=O)Nc3ccc(F)cc32)c1C [sunitinib] + COC(=O)c1sccc1S(=O)(=O)Nc1ccc(Nc2ccccc2)cc1OC [GSK0660] (first compound 0.4 µM, partner dose 1 µM)",110%
4,"Cn1cnc2c(F)c(Nc3ccc(Br)cc3Cl)c(C(=O)NOCCO)cc21 [selumetinib] + COc1cc2c(Oc3ccc4[nH]c(C)cc4c3F)ncnc2cc1OCCCN1CCCC1 [cediranib] (first compound 0.015 µM, partner dose 0.4 µM)",101%
5,"Cn1cnc2c(F)c(Nc3ccc(Br)cc3Cl)c(C(=O)NOCCO)cc21 [selumetinib] + COc1cc2ncnc(Nc3ccc(Oc4ccccc4)cc3)c2cc1OC [SrcI1] (first compound 0.015 µM, partner dose 2 µM)",112%
6,"Cn1cnc2c(F)c(Nc3ccc(Br)cc3Cl)c(C(=O)NOCCO)cc21 [selumetinib] + NC(=O)Nc1cc(-c2cccc(F)c2)sc1C(=O)N[C@H]1CCCNC1 [AZD7762] (first compound 0.015 µM, partner dose 0.02 µM)",147%
7,"COc1cc([C@@H]2c3cc4c(cc3[C@@H](O[C@@H]3O[C@@H]5CO[C@@H](C)O[C@H]5[C@H](O)[C@H]3O)[C@H]3COC(=O)[C@H]23)OCO4)cc(OC)c1O [etoposide] + Cn1cncc1[C@@](N)(c1ccc(Cl)cc1)c1ccc2c(c1)c(-c1cccc(Cl)c1)cc(=O)n2C [tipifarnib] (first compound 0.02 µM, partner dose 0.01 µM)",71.3%
8,"CCN(CC)CCNC(=O)c1c(C)[nH]c(/C=C2\C(=O)Nc3ccc(F)cc32)c1C [sunitinib] + O=C(CCCCCCC(=O)Nc1ccccc1)NO [vorinostat] (first compound 0.4 µM, partner dose 0.08 µM)",114%
9,"COc1cc([C@@H]2c3cc4c(cc3[C@@H](O[C@@H]3O[C@@H]5CO[C@@H](C)O[C@H]5[C@H](O)[C@H]3O)[C@H]3COC(=O)[C@H]23)OCO4)cc(OC)c1O [etoposide] + Cc1cc([N+](=O)[O-])ccc1NS(=O)(=O)c1cc(Cl)ccc1Cl [FH535] (first compound 0.02 µM, partner dose 1 µM)",97.6%

# System: UACC62
# Assay: as above
# Conditions: library dose: low library concentration; 72 h
row,SMILES,cell count
1,"C[C@]1(O)C[C@@H](c2nc(-c3ccc4ccc(-c5ccccc5)nc4c3)c3c(N)nccn32)C1 + CN(NC(=O)CC(=O)NN(C)C(=S)c1ccccc1)C(=S)c1ccccc1 [STA4783] (first compound 0.4 µM, partner dose 0.006 µM)",80.2%
2,"C[C@]1(O)C[C@@H](c2nc(-c3ccc4ccc(-c5ccccc5)nc4c3)c3c(N)nccn32)C1 + NCC(=O)Nc1ccc(-n2nc(C(F)(F)F)cc2-c2ccc3c(ccc4ccccc43)c2)cc1 [OSU03012] (first compound 0.4 µM, partner dose 1 µM)",80.8%
3,"CCN(CC)CCNC(=O)c1c(C)[nH]c(/C=C2\C(=O)Nc3ccc(F)cc32)c1C [sunitinib] + Oc1nc(-c2ccc(C(F)(F)F)cc2)nc2c1CSCC2 [XAV939] (first compound 0.4 µM, partner dose 2 µM)",82.9%
4,"C[C@]1(O)C[C@@H](c2nc(-c3ccc4ccc(-c5ccccc5)nc4c3)c3c(N)nccn32)C1 + CC(C)CCN1c2nc(Nc3cc(F)c(O)c(F)c3)ncc2N(C)C(=O)C1C [BID1870] (first compound 0.4 µM, partner dose 0.2 µM)",76.6%
5,"CCN(CC)CCNC(=O)c1c(C)[nH]c(/C=C2\C(=O)Nc3ccc(F)cc32)c1C [sunitinib] + COc1cc(N2CCC(N3CCN(C)CC3)CC2)ccc1Nc1ncc(Cl)c(Nc2ccccc2S(=O)(=O)C(C)C)n1 [NVP-TAE684] (first compound 0.4 µM, partner dose 0.08 µM)",87.3%
6,"CCN(CC)CCNC(=O)c1c(C)[nH]c(/C=C2\C(=O)Nc3ccc(F)cc32)c1C [sunitinib] + CCc1ccc(CCOc2ccc(CC3SC(=O)NC3=O)cc2)nc1 [pioglitazone] (first compound 0.4 µM, partner dose 2 µM)",103%
7,"C[C@]1(O)C[C@@H](c2nc(-c3ccc4ccc(-c5ccccc5)nc4c3)c3c(N)nccn32)C1 + NC(=O)Nc1cc(-c2cccc(F)c2)sc1C(=O)N[C@H]1CCCNC1 [AZD7762] (first compound 0.4 µM, partner dose 0.02 µM)",92.6%
8,"C[C@]1(O)C[C@@H](c2nc(-c3ccc4ccc(-c5ccccc5)nc4c3)c3c(N)nccn32)C1 + c1cc(-c2cnn3cc(-c4ccc(OCCN5CCCCC5)cc4)cnc23)ccn1 [Dorsomorphin] (first compound 0.4 µM, partner dose 0.4 µM)",101%
9,"COc1cc([C@@H]2c3cc4c(cc3[C@@H](O[C@@H]3O[C@@H]5CO[C@@H](C)O[C@H]5[C@H](O)[C@H]3O)[C@H]3COC(=O)[C@H]23)OCO4)cc(OC)c1O [etoposide] + COc1cc(N2CCC(N3CCN(C)CC3)CC2)ccc1Nc1ncc(Cl)c(Nc2ccccc2S(=O)(=O)C(C)C)n1 [NVP-TAE684] (first compound 0.02 µM, partner dose 0.08 µM)",87.7%
10,"CCN(CC)CCNC(=O)c1c(C)[nH]c(/C=C2\C(=O)Nc3ccc(F)cc32)c1C [sunitinib] + CCCCCCCCCCCC1=C(O)C(=O)C=C(O)C1=O [Embelin] (first compound 0.4 µM, partner dose 1.2 µM)",84.5%
11,"Cn1cnc2c(F)c(Nc3ccc(Br)cc3Cl)c(C(=O)NOCCO)cc21 [selumetinib] + CO[C@@H]1[C@H](N(C)C(=O)c2ccccc2)C[C@H]2O[C@]1(C)n1c3ccccc3c3c4c(c5c6ccccc6n2c5c31)C(=O)NC4 [Midostaurin] (first compound 0.015 µM, partner dose 0.08 µM)",73.5%
12,"COc1cc([C@@H]2c3cc4c(cc3[C@@H](O[C@@H]3O[C@@H]5CO[C@@H](C)O[C@H]5[C@H](O)[C@H]3O)[C@H]3COC(=O)[C@H]23)OCO4)cc(OC)c1O [etoposide] + NC(=O)Nc1cc(-c2cccc(F)c2)sc1C(=O)N[C@H]1CCCNC1 [AZD7762] (first compound 0.02 µM, partner dose 0.02 µM)",75.5%
13,"Cn1cnc2c(F)c(Nc3ccc(Br)cc3Cl)c(C(=O)NOCCO)cc21 [selumetinib] + Oc1nc(-c2ccc(C(F)(F)F)cc2)nc2c1CSCC2 [XAV939] (first compound 0.015 µM, partner dose 2 µM)",63.1%
14,"CCN(CC)CCNC(=O)c1c(C)[nH]c(/C=C2\C(=O)Nc3ccc(F)cc32)c1C [sunitinib] + NC(=O)Nc1cc(-c2cccc(F)c2)sc1C(=O)N[C@H]1CCCNC1 [AZD7762] (first compound 0.4 µM, partner dose 0.02 µM)",97%
15,"C[C@]1(O)C[C@@H](c2nc(-c3ccc4ccc(-c5ccccc5)nc4c3)c3c(N)nccn32)C1 + O=S(=O)(c1ccccc1)N(CC(F)(F)F)c1ccc(C(O)(C(F)(F)F)C(F)(F)F)cc1 [T0901317] (first compound 0.4 µM, partner dose 1.4 µM)",89%
16,"CCN(CC)CCNC(=O)c1c(C)[nH]c(/C=C2\C(=O)Nc3ccc(F)cc32)c1C [sunitinib] + COc1cc(Nc2ncc(F)c(Nc3ccc4c(n3)NC(=O)C(C)(C)O4)n2)cc(OC)c1OC [Tamatinib] (first compound 0.4 µM, partner dose 0.4 µM)",86.7%
17,"C[C@]1(O)C[C@@H](c2nc(-c3ccc4ccc(-c5ccccc5)nc4c3)c3c(N)nccn32)C1 + COc1cc2c(Oc3ccc4[nH]c(C)cc4c3F)ncnc2cc1OCCCN1CCCC1 [cediranib] (first compound 0.4 µM, partner dose 0.4 µM)",78.4%
18,"C[C@]1(O)C[C@@H](c2nc(-c3ccc4ccc(-c5ccccc5)nc4c3)c3c(N)nccn32)C1 + COc1cc2ncnc(Nc3ccc(Oc4ccccc4)cc3)c2cc1OC [SrcI1] (first compound 0.4 µM, partner dose 2 µM)",110%
19,"CCN(CC)CCNC(=O)c1c(C)[nH]c(/C=C2\C(=O)Nc3ccc(F)cc32)c1C [sunitinib] + OCCn1cc(-c2cnc3nnn(Cc4ccc5ncccc5c4)c3n2)cn1 [PF04217903] (first compound 0.4 µM, partner dose 1 µM)",81.3%
20,"Cn1cnc2c(F)c(Nc3ccc(Br)cc3Cl)c(C(=O)NOCCO)cc21 [selumetinib] + N#Cc1c(O)c2c(-c3ccc(-c4ccccc4O)cc3)csc2[nH]c1=O [A769662] (first compound 0.015 µM, partner dose 2 µM)",71.8%
